Data reported in PubChem BioAssay AID588342 (National Center for Advancing Translational Sciences (NCATS), 2011).
The whole screen tested about 360,000 compounds, of which about 25,000 (6.9%) were called active. This list was built around the results that the source calls inconclusive (neither active nor inactive); the mix of calls is not that of the screen. Calls follow the shape of the dose curve; as a rule, active = well fitted inhibition curve with a large enough effect; inconclusive = small, poorly fitted or top-dose-only effect; inactive = flat fitted curve, though single readings scatter. Potencies of inconclusive entries are doubtful fits and often do not repeat.

molecular target: Luciferin 4-monooxygenase (Photinus pyralis) (UniProt P08659); assay: qHTS profiling assay for firefly luciferase inhibitor/activator using purifed enzyme and Km concentrations of substrates (counterscreen for miR-21 project); conditions: purified FLuc, luminescence inhibition; series mostly up to 57.5 µM; also: nearly all actives have a fitted effect of over 55% in size
UniProt P08659, sequence (P08659 whole entry, looked up): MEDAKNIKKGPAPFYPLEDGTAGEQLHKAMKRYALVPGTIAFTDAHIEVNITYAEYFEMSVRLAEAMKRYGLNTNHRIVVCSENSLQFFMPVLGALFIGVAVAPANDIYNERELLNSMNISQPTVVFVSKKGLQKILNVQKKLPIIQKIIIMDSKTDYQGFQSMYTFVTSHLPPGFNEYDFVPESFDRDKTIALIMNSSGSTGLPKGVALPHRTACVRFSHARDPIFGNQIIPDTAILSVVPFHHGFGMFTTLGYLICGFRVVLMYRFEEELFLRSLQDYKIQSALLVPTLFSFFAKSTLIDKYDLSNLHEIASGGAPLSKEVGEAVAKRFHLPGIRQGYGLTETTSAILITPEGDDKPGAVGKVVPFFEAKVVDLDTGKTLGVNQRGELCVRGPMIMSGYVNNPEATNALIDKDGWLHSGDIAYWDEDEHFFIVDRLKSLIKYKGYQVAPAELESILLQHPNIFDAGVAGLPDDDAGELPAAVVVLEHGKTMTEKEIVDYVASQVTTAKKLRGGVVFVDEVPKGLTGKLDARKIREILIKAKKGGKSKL
Method in brief: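 Biochemical qHTS of compounds, final roughly 60 µM downward over six points, against 10 nM purified firefly luciferase using Km concentrations of substrates (10 uM D-luciferin, 10 uM ATP) in Tris acetate pH 7.5 buffer; luminescence output.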
Potency is read from the fitted curve at half-maximal effect; tags tell the direction and shape of the fitted curve.

Q: For `Cc1cccc2sc(N(Cc3cccnc3)C(=O)c3cccs3)nc12`, which Potency is on record?
A: inconclusive: 37.9 µM [inhibitor, partial curve, poor fit]

Q: How did the Potency turn out when `Cc1ccc2nc(SCC(=O)NNC(=O)c3ccccc3)[nH]c2c1` was run?
A: inconclusive: 26.9 µM [inhibitor, single point]

Q: With `Cc1ccccc1N1C(=O)C2C3C=CC(C2C1=O)N(C)C3=O` (centres undefined) as the compound, how does the Potency read?
A: inconclusive: 8.49 µM [inhibitor, partial curve, poor fit]

Q: With `CCOc1cc(S(=O)(=O)NCc2ccncc2)ccc1Cl` as the compound, how does the Potency read?
A: inactive

Q: `Cc1ccccc1C(=O)NC(=S)Nc1ccccc1[N+](=O)[O-]` was tested. Which Potency did it give?
A: inconclusive: 21.3 µM [inhibitor, single point]

Q: With `COc1ccc(C(=O)Oc2cccc(Nc3ncnc4ccccc34)c2)cc1OC` as the compound, how does the Potency read?
A: inconclusive: 19 µM [inhibitor, partial curve]

Q: With `CN(CC(=O)Nc1ccc(Cl)c(C(F)(F)F)c1)C(=O)c1cc(-c2ccncc2)nc2ccccc12` as the compound, how does the Potency read?
A: inconclusive: 21.3 µM [inhibitor, single point]

Q: `Cc1ccc(NC(=O)/C(C#N)=C/c2ccsc2)c(C)c1` was tested. Which Potency did it give?
A: inconclusive: 2.69 µM [inhibitor, full curve]

Q: Which Potency does the source give for `COC(=O)c1ccc(/C=C2\SC(=S)N(CCCC(=O)NCCCN3CCOCC3)C2=O)cc1` here?
A: inconclusive: 26.9 µM [inhibitor, partial curve]

Q: Which Potency does the source give for `COc1ccccc1NC(=O)c1sc2nc(C)c(C(=O)Nc3ccc(C)cc3C)c(-c3cccs3)c2c1N` here?
A: inactive

Q: With `Cc1cc(C)nc(NC(=O)c2ccc(Br)cc2)n1` as the compound, how does the Potency read?
A: inactive

Q: `CCc1ccc(NC(=O)CC2C(=O)N(c3ccc(Cl)cc3)C(=O)N2Cc2ccco2)cc1` (centres undefined) was tested. Which Potency did it give?
A: inconclusive: 16.9 µM [inhibitor, partial curve]

Q: For `COC(=O)C1CCN(C(=O)c2sc3nc(-c4ccccc4)cn3c2C)CC1`, which Potency is on record?
A: inconclusive: 37.9 µM [inhibitor, partial curve, poor fit]

Q: Which Potency does the source give for `CCOC(=O)CCCSc1nc(-c2ccc3c(c2)OCO3)cc(C(F)(F)F)c1C#N` here?
A: inactive

Q: For `COc1ccc(C2=NN(c3ccccc3)C(c3cccs3)C2)cc1` (centres undefined), which Potency is on record?
A: inconclusive: 10.7 µM [inhibitor, partial curve]

Q: How did the Potency turn out when `Cc1nc(NC(=S)NC(=O)c2ccco2)sc1C(=O)N(C)C` was run?
A: inactive

Q: For `O=C(Cn1cnc2ccccc2c1=O)c1ccc(Br)cc1`, which Potency is on record?
A: inconclusive: 13.5 µM [inhibitor, partial curve]

Q: With `O=C1NC2=C(C(=O)OC2)C(c2ccc(OC(F)(F)F)cc2)N1` (centres undefined) as the compound, how does the Potency read?
A: inactive

Q: Which Potency does the source give for `N#Cc1ccccc1Cn1c(=O)n(-c2cccc(C(F)(F)F)c2)c(=O)c2sccc21` here?
A: inactive

Q: `COc1cccc(NC(=O)Nc2ccc3nc(C)c(C)nc3c2)c1` was tested. Which Potency did it give?
A: inconclusive: 8.49 µM [inhibitor, partial curve]

Q: How did the Potency turn out when `COCCCNc1nc(-c2ccncc2)nc2ccccc12` was run?
A: inactive

Q: For `COc1cccc(/C=N/NC(=O)c2[nH]c(C)c(C(=O)N/N=C/c3cccc(OC)c3)c2C)c1`, which Potency is on record?
A: inconclusive: 26.9 µM [inhibitor, partial curve]

Q: For `Cc1cccc(Nc2nnc(SCC3CCCCO3)s2)c1` (centres undefined), which Potency is on record?
A: active: 5.36 µM

Q: How did the Potency turn out when `Cc1ccccc1C(=O)Nc1ccccc1C(=O)N/N=C\c1ccco1` was run?
A: inconclusive: 26.9 µM [inhibitor, partial curve, poor fit]

Q: For `COc1ccc(CCNC(=O)c2n[nH]c3ccccc23)cc1`, which Potency is on record?
A: active: 21.3 µM

Q: With `Cc1nc(NC(=O)c2cc3ccccc3o2)ccc1Br` as the compound, how does the Potency read?
A: inconclusive: 5.36 µM [inhibitor, full curve]

Q: How did the Potency turn out when `CCOc1ccccc1NC(=O)/C=C/c1ccccc1[N+](=O)[O-]` was run?
A: inconclusive: 8.49 µM [inhibitor, partial curve, poor fit]

Q: For `COC(=O)c1ccc(NC(=O)CSCc2ccccc2C)cc1`, which Potency is on record?
A: inconclusive: 37.9 µM [inhibitor, partial curve, poor fit]

Q: For `C#CCN(CC=C)C(=O)c1ccc2nc(C3CCCCC3)oc2c1`, which Potency is on record?
A: inconclusive: 30.1 µM [inhibitor, partial curve, poor fit]

Q: For `C=CCn1c(C)cc(C(=O)COc2ccc(C)nc2[N+](=O)[O-])c1C`, which Potency is on record?
A: inconclusive: 21.3 µM [inhibitor, single point]

Q: `Cc1ccc(C(=O)Nc2ccccc2C(=O)NC(CC(=O)O)C(=O)O)cc1` (centres undefined) was tested. Which Potency did it give?
A: active: 15.1 µM

Q: For `Cc1nc(N)sc1N=Nc1ccc(F)cc1`, which Potency is on record?
A: active: 12 µM

Q: For `O=C(O)C1C2CCC(C2)C1C(=O)NCCC1=CCCCC1` (centres undefined), which Potency is on record?
A: inactive

Q: `COc1ccc(C(=O)Nc2nccs2)cc1` was tested. Which Potency did it give?
A: active: 19 µM

Q: How did the Potency turn out when `Cc1ccc(C(=O)CSc2cc(C)[nH]c(=O)n2)cc1` was run?
A: active: 13.5 µM

Q: With `CC1(C)Cc2cccc(OCC(=O)Nc3ccc(S(N)(=O)=O)cc3)c2O1` as the compound, how does the Potency read?
A: inactive

Q: For `Cc1ccc(S(=O)(=O)N(C)c2ccc(C(=O)Nc3ccc(C)cn3)cc2)cc1`, which Potency is on record?
A: inconclusive: 33.8 µM [inhibitor, partial curve, poor fit]

Q: With `CCC(=O)N1CCN(c2ccc(NC(=O)c3cc4ccccc4o3)cc2Cl)CC1` as the compound, how does the Potency read?
A: inconclusive: 16.9 µM [inhibitor, partial curve]

Q: Which Potency does the source give for `Cc1ccccc1NC(=O)c1ccc([N+](=O)[O-])o1` here?
A: inactive

Q: For `O=[N+]([O-])c1cccnc1N/N=C/c1ccccc1O`, which Potency is on record?
A: inconclusive: 2.13 µM [inhibitor, full curve]

Q: `Cc1ccc(-c2nc(C=Nc3ccc(O)cc3)c(O)o2)cc1` was tested. Which Potency did it give?
A: inconclusive: 3.38 µM [inhibitor, partial curve, poor fit]

Q: With `Cc1cccc(C(=O)Nc2scc(CC(C)C)c2C(=O)O)c1` as the compound, how does the Potency read?
A: inconclusive: 23.9 µM [inhibitor, single point]

Q: With `COCCCNC(=O)c1cnc2c(-c3ccc(F)cc3)c(C)nn2c1C` as the compound, how does the Potency read?
A: inactive

Q: `O=c1c2ccccc2oc2cc(NCCCN3CCOCC3)ccc12` was tested. Which Potency did it give?
A: active: 10.7 µM

Q: For `CCCN(CCC)CCCNC(=O)c1ccc(CS(=O)(=O)c2c(Cl)cccc2Cl)o1`, which Potency is on record?
A: inactive

Q: How did the Potency turn out when `COCC(=O)N1CCC(Oc2ccc(C(=O)N(C)C(C)c3ccon3)cc2)CC1` (centres undefined) was run?
A: inactive

Q: How did the Potency turn out when `CCOc1cccc(C(=O)N2CCC(c3nc4ccccc4s3)CC2)c1` was run?
A: inactive

Q: Which Potency does the source give for `COC(=O)c1ccc(N)c(N=CC2=C(O)CC(C)(C)CC2=O)c1` here?
A: inconclusive: 21.3 µM [inhibitor, partial curve, poor fit]

Q: How did the Potency turn out when `Cc1nn(-c2ccccc2Cl)c(Cl)c1/C=N/Nc1cccc(C(=O)O)c1` was run?
A: active: 0.12 µM
